Experimental data taken from PMC12136788.
The list shows a part of the results.

T1: UNK ZnF1-3 (human, UniProt Q9C0B0 31-174)
T1 sequence: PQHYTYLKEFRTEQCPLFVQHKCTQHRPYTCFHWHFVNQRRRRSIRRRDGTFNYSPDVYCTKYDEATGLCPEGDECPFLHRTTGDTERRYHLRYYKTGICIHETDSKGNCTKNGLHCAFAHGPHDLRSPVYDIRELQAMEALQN

B1: chr1:163117072:163117073:-_ENSG00000143248_ENST00000313961|hu_hu|FALSE|FALSE (ssRNA)
RNA: GGGAGUUCUACAGUCCGACGAUCGGAAAUGCAGGGUUAUUAUGGAGGAAAUAACUCACAGGAUGAUUUCAUAGCCUGGCUAAAUUACUACUUGAUUAACUCCUGAUAAAACUCAGAGCGCACAAAGCGAGGCAGAGAAUCCUUCAACAGAGGAUUGAGCAUCA
B2: chr1:60041781:60041782:+_ENSMUSG00000041040_ENSMUST00000036540|mus_hu|mus_mus_mus_hu_False|38_98 (ssRNA)
RNA: GGGAGUUCUACAGUCCGACGAUCAAGUUUACAAUAGCUCAACUUUAGCAGUAGUGGCAAAUUUUCUUUUAUUUUCCUUCACAAAAGAAAAUCUUUAGAUCUCAGUUCUAGUCUUGGACAUAGUGAAAGCUAUAAAUUCUGACUCAACAGAGGAUUGAGCAUCA
B3: chr18:34472677:34472678:+_ENSMUSG00000005871_ENSMUST00000115781|mus_mus|FALSE|FALSE (ssRNA)
RNA: GGGAGUUCUACAGUCCGACGAUCUGCACUGUGUAUCUUAUGGGCUAGGUCAGCUGGAUACUGACCAUAACUGCAAAAUUUACUUUCAUCAUCUUCAGAAUAGGAUUCAACUGAGGGUUUCAUUUGGCCUCUUUUACCAUAUCCCAACAGAGGAUUGAGCAUCA
B4: 73047273_73096420_338_5pUTR_ENSG00000163605_ENST00000295862|human|control|control (ssRNA)
RNA: GGGAGUUCUACAGUCCGACGAUCGGCUCAGGAGCUGAAGUUCUGAAAUCAUCCAUCACUUUCUCCAGUUUGAAAAUAAAAUAGCCUUUAAAUUGGGACCACUGAAUCAUUGUUUCUCCAGUCUUGGCUACAUGACAAAGAAACCAACAGAGGAUUGAGCAUCA
B5: chr1:196642912:196642913:+_ENSMUSG00000026640_ENSMUST00000027952|mus_hu|FALSE|FALSE (ssRNA)
RNA: GGGAGUUCUACAGUCCGACGAUCAGGUACACAAUAAUAUAUUAGAAUAACAAAAAACCCCACUUUAUUGGAACAUUUUAAAUACUUAAUUUUCUUACAGUUUUUAUUCCACAACACCUGUAAAAACAACAAAACCAGACAACCCAACAGAGGAUUGAGCAUCA
B6: chr15:80414081:80414082:+_ENSG00000086666_ENST00000558494|hu_hu|motif|central (ssRNA)
RNA: GGGAGUUCUACAGUCCGACGAUCUGGUAAAGAUUCAGACAGACUACUGACAGAGGUUGCAGGUGGGCUUAUUCUACCAUUACGGCGGUUCUGUCUUUGAAGAUGUUCUUUAUAGCAUACUGAACACAUGCCAUUUGUACGAGGCAACAGAGGAUUGAGCAUCA

Each binder was assayed against T1, UNK ZnF1-3 (assay: nsRBNS (natural sequence RNA bind-n-seq); RBNS binding buffer (assumed for nsRBNS): 25 mM Tris pH 7.5, 150 mM KCl, 3 mM MgCl2, 0.01% Triton X-100, 500 ug/ml BSA, 20 U/ml SUPERase-In, 4 C; UNK is unkempt and MSI1 is Musashi-1; names of the RNAs are library labels; protein concentration not given here; high values mean tight binding).

**Q.** For B1, which binding signal is on record?
**A.** 1.76 enrichment R

**Q.** Which binding signal does the source give for B2 here?
**A.** 0.379 enrichment R

**Q.** Which binding signal does the source give for B3 here?
**A.** 0.614 enrichment R

**Q.** How did the binding signal turn out when B4 was run?
**A.** 1.25 enrichment R

**Q.** Which binding signal does the source give for B5 here?
**A.** 2.21 enrichment R

**Q.** Which binding signal does the source give for B6 here?
**A.** 0.998 enrichment R
